This is one part of the list. The list includes weakly bound sequences.

This test addresses T1, MBP-FoxP3dN (UniProt Q99JB6).
T1 sequence: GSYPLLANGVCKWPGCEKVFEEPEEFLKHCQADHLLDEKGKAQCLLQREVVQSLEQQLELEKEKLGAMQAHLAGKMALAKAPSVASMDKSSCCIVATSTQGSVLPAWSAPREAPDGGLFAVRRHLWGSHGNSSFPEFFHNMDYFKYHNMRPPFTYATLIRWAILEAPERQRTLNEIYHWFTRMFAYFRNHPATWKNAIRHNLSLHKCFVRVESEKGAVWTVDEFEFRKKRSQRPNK
In words: PD-seq (MBP pull-down with sequencing). To be noted: 20 mM Tris-HCl pH 7.5, 100 mM NaCl, 1.5 mM MgCl2, 0.4 uM protein, 0.1 uM dsDNA library, 30 min, room temperature, amylose pull-down; high values mean tight binding; double strand, one strand shown.
As to “GATGATTGTTCTCCCAGCTGATGAATTAGCAGGGTCGAGTAAACAAATTTTCCTAATCTTTCTGTTCAAGCGCCATCTAC”, the binding signal (RPM ratio (pull-down/input)) was determined as 0.346.

Take “GATGATTGTTCTCCCAGCTGATGAATTGCGGCTCTCGAGTAAACAAATTTTCCTAATCTTTCTGTTCAAGCGCCATCTAC”: the binding signal (RPM ratio (pull-down/input)) was found to be 0.817.

For the sequence “GATGATTGTTCTCCCAGCTGATGAATTGGCCTCGTCGAGTAAACAAATTTTCCTAATCTTTCTGTTCAAGCGCCATCTAC”, the binding signal (RPM ratio (pull-down/input)) came out at 0.618.

Turning to “GATGATTGTTCTCCCAGCTGATGAATTGTGGACGTCGAGTAAACAAATTTTCCTAATCTTTCTGTTCAAGCGCCATCTAC”, the binding signal (RPM ratio (pull-down/input)) is 0.655.

Turning to “GATGATTGTTCTCCCAGCTGATGAATTGCACCTATCGAGTAAACAAATTTTCCTAATCTTTCTGTTCAAGCGCCATCTAC”, the binding signal (RPM ratio (pull-down/input)) came out at 1.12.

For the sequence “GATGATTGTTCTCCCAGCTGATGAATTCCGAGTCTCGAGTAAACAAATTTTCCTAATCTTTCTGTTCAAGCGCCATCTAC”, the binding signal (RPM ratio (pull-down/input)) was determined as 1.2.

For the sequence “GATGATTGTTCTCCCAGCTGATGAATTGACCCTGTCGAGTAAACAAATTTTCCTAATCTTTCTGTTCAAGCGCCATCTAC”, the binding signal (RPM ratio (pull-down/input)) came to 0.254.

As for “GATGATTGTTCTCCCAGCTGATGAATTGAGCCGATCGAGTAAACAAATTTTCCTAATCTTTCTGTTCAAGCGCCATCTAC”, the binding signal (RPM ratio (pull-down/input)) was 0.418.

“GATGATTGTTCTCCCAGCTGATGAATTGCTGTCCTCGAGTAAACAAATTTTCCTAATCTTTCTGTTCAAGCGCCATCTAC”: the binding signal (RPM ratio (pull-down/input)) amounted to 0.937.

For the sequence “GATGATTGTTCTCCCAGCTGATGAATTCCTTGAGTCGAGTAAACAAATTTTCCTAATCTTTCTGTTCAAGCGCCATCTAC”, the binding signal (RPM ratio (pull-down/input)) came to 0.211.

As to “GATGATTGTTCTCCCAGCTGATGAATTACTCTCGTCGAGTAAACAAATTTTCCTAATCTTTCTGTTCAAGCGCCATCTAC”, the binding signal (RPM ratio (pull-down/input)) stood at 0.275.

For the sequence “GATGATTGTTCTCCCAGCTGATGAATTTCGCAACTCGAGTAAACAAATTTTCCTAATCTTTCTGTTCAAGCGCCATCTAC”, the binding signal (RPM ratio (pull-down/input)) came to 5.53.

With “GATGATTGTTCTCCCAGCTGATGAATTAAGATTTTCGAGTAAACAAATTTTCCTAATCTTTCTGTTCAAGCGCCATCTAC”, the binding signal (RPM ratio (pull-down/input)) came to 0.512.

On to “GATGATTGTTCTCCCAGCTGATGAATTGGCAGCCTCGAGTAAACAAATTTTCCTAATCTTTCTGTTCAAGCGCCATCTAC”, for which the binding signal (RPM ratio (pull-down/input)) amounted to 0.527.

With “GATGATTGTTCTCCCAGCTGATGAATTACTACAGTCGAGTAAACAAATTTTCCTAATCTTTCTGTTCAAGCGCCATCTAC”, the binding signal (RPM ratio (pull-down/input)) worked out at 0.403.

For “GATGATTGTTCTCCCAGCTGATGAATTATTCGGGTCGAGTAAACAAATTTTCCTAATCTTTCTGTTCAAGCGCCATCTAC”, the binding signal (RPM ratio (pull-down/input)) was determined as 0.268.

“GATGATTGTTCTCCCAGCTGATGAATTGGGATCATCGAGTAAACAAATTTTCCTAATCTTTCTGTTCAAGCGCCATCTAC”: the binding signal (RPM ratio (pull-down/input)) turned out to be 0.419.

“GATGATTGTTCTCCCAGCTGATGAATTCGCATGGTCGAGTAAACAAATTTTCCTAATCTTTCTGTTCAAGCGCCATCTAC”: the binding signal (RPM ratio (pull-down/input)) was 1.42.

With “GATGATTGTTCTCCCAGCTGATGAATTCCCCATGTCGAGTAAACAAATTTTCCTAATCTTTCTGTTCAAGCGCCATCTAC”, the binding signal (RPM ratio (pull-down/input)) was determined as 0.259.

For the sequence “GATGATTGTTCTCCCAGCTGATGAATTAGCTTGGTCGAGTAAACAAATTTTCCTAATCTTTCTGTTCAAGCGCCATCTAC”, the binding signal (RPM ratio (pull-down/input)) was determined as 1.84.

In the case of “GATGATTGTTCTCCCAGCTGATGAATTGGCTCCATCGAGTAAACAAATTTTCCTAATCTTTCTGTTCAAGCGCCATCTAC”, the binding signal (RPM ratio (pull-down/input)) was 0.298.

For the sequence “GATGATTGTTCTCCCAGCTGATGAATTCAATCATTCGAGTAAACAAATTTTCCTAATCTTTCTGTTCAAGCGCCATCTAC”, the binding signal (RPM ratio (pull-down/input)) was determined as 0.715.

In the case of “GATGATTGTTCTCCCAGCTGATGAATTCAACAATTCGAGTAAACAAATTTTCCTAATCTTTCTGTTCAAGCGCCATCTAC”, the binding signal (RPM ratio (pull-down/input)) is 0.542.

Turning to “GATGATTGTTCTCCCAGCTGATGAATTTTTCACATCGAGTAAACAAATTTTCCTAATCTTTCTGTTCAAGCGCCATCTAC”, the binding signal (RPM ratio (pull-down/input)) amounted to 0.311.

“GATGATTGTTCTCCCAGCTGATGAATTAAAGGTATCGAGTAAACAAATTTTCCTAATCTTTCTGTTCAAGCGCCATCTAC”: the binding signal (RPM ratio (pull-down/input)) is 0.42.

With “GATGATTGTTCTCCCAGCTGATGAATTCATCTATTCGAGTAAACAAATTTTCCTAATCTTTCTGTTCAAGCGCCATCTAC”, the binding signal (RPM ratio (pull-down/input)) turned out to be 0.616.

As to “GATGATTGTTCTCCCAGCTGATGAATTACACAAATCGAGTAAACAAATTTTCCTAATCTTTCTGTTCAAGCGCCATCTAC”, the binding signal (RPM ratio (pull-down/input)) is 0.684.

For “GATGATTGTTCTCCCAGCTGATGAATTTTTTAAGTCGAGTAAACAAATTTTCCTAATCTTTCTGTTCAAGCGCCATCTAC”, the binding signal (RPM ratio (pull-down/input)) is 0.204.

As to “GATGATTGTTCTCCCAGCTGATGAATTTACTAACTCGAGTAAACAAATTTTCCTAATCTTTCTGTTCAAGCGCCATCTAC”, the binding signal (RPM ratio (pull-down/input)) was determined as 0.642.

Take “GATGATTGTTCTCCCAGCTGATGAATTCTCCTTTTCGAGTAAACAAATTTTCCTAATCTTTCTGTTCAAGCGCCATCTAC”: the binding signal (RPM ratio (pull-down/input)) was 0.224.

As for “GATGATTGTTCTCCCAGCTGATGAATTACTACTTTCGAGTAAACAAATTTTCCTAATCTTTCTGTTCAAGCGCCATCTAC”, the binding signal (RPM ratio (pull-down/input)) is 0.384.

Turning to “GATGATTGTTCTCCCAGCTGATGAATTAACTAGCTCGAGTAAACAAATTTTCCTAATCTTTCTGTTCAAGCGCCATCTAC”, the binding signal (RPM ratio (pull-down/input)) is 0.216.

On to “GATGATTGTTCTCCCAGCTGATGAATTACGCCCCTCGAGTAAACAAATTTTCCTAATCTTTCTGTTCAAGCGCCATCTAC”, for which the binding signal (RPM ratio (pull-down/input)) worked out at 1.9.

As for “GATGATTGTTCTCCCAGCTGATGAATTGCCCCGGTCGAGTAAACAAATTTTCCTAATCTTTCTGTTCAAGCGCCATCTAC”, the binding signal (RPM ratio (pull-down/input)) amounted to 0.287.

With “GATGATTGTTCTCCCAGCTGATGAATTTCACCGCTCGAGTAAACAAATTTTCCTAATCTTTCTGTTCAAGCGCCATCTAC”, the binding signal (RPM ratio (pull-down/input)) turned out to be 0.268.

As for “GATGATTGTTCTCCCAGCTGATGAATTGATATACTCGAGTAAACAAATTTTCCTAATCTTTCTGTTCAAGCGCCATCTAC”, the binding signal (RPM ratio (pull-down/input)) was 1.22.

For the sequence “GATGATTGTTCTCCCAGCTGATGAATTACCGTACTCGAGTAAACAAATTTTCCTAATCTTTCTGTTCAAGCGCCATCTAC”, the binding signal (RPM ratio (pull-down/input)) was determined as 0.439.

“GATGATTGTTCTCCCAGCTGATGAATTTGCCGGCTCGAGTAAACAAATTTTCCTAATCTTTCTGTTCAAGCGCCATCTAC”: the binding signal (RPM ratio (pull-down/input)) was found to be 0.385.

For the sequence “GATGATTGTTCTCCCAGCTGATGAATTTGGCAAATCGAGTAAACAAATTTTCCTAATCTTTCTGTTCAAGCGCCATCTAC”, the binding signal (RPM ratio (pull-down/input)) stood at 0.573.

In the case of “GATGATTGTTCTCCCAGCTGATGAATTAACGGAGTCGAGTAAACAAATTTTCCTAATCTTTCTGTTCAAGCGCCATCTAC”, the binding signal (RPM ratio (pull-down/input)) stood at 0.204.

The record behind these values is publication PMC12820563.
